According to PMC12040169 (PLOS Biology, 2025):
This is one part of the list.

These compounds were tested on T1, C. trachomatis L2/434/Bu expressing GFP (CTL2-GFP). Details: total inclusion area; 28.5 h, 10 µM; inhibitor.
T1 construct: L2/434/Bu GFP intracellular growth in HeLa cells
Design: species or system HeLa; C. trachomatis total inclusion area by high-content imaging, normalised to DMSO
Summary of the method: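 High-content imaging followed the bulk GFP/resorufin measurement: fixed, Hoechst-stained cells were scored for GFP inclusions and host nuclei per well. Total inclusion area and count served as growth proxies, nuclei number as the viability proxy. MIC calculation matched the bulk assay.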

Compound	% of control remaining
CCCC1CCN(c2ncnc(Oc3ccc(C(=O)c4ccc(F)cc4)cc3)c2[N+](=O)[O-])CC1 [CBK116495]	84.7284
C1=CC2N=C(SCc3ccccc3)OC2C=C1 (stereo not shown) [CBK021412]	105.2
Cn1cc(CCCC(=O)NCCC2=CCCCC2)c2ccccc21 [CBK061756]	95.7231
COc1cnc(-c2ccccc2OC)c(NC(=O)c2ccccc2)n1 [CBK145261]	88.2633
O=C(Nc1cccc(Oc2ccccc2)c1)c1ccc2[nH]ccc2c1 [CBK161728]	68.4827
O=C(NC(=S)Nc1ccc(C(=O)O)c(Cl)c1)c1ccc(-c2ccc(Cl)cc2)o1 [CBK265063]	88.0146
O=C(O)CCC(=O)Nc1ccc(C(=O)N2CCCc3ccccc32)cc1 [CBK269118]	77.8659
COc1ccccc1-c1nnc(SCC(=O)Nc2nccs2)o1 [CBK287390]	74.1656
COc1cc(C2C3=C(CC(C)(C)CC3=O)Nc3ncnn32)cc(OC)c1OC (stereo not shown) [CBK265646]	91.7093
CC(Oc1ccc(F)cc1)C(=O)N(C)CC1(C)COC1 (stereo not shown) [CBK281702]	106.01
S=c1[nH]nc(-c2ccc(Cl)cc2)n1-c1cccnc1 [CBK086427]	60.9189
CCCCn1c(SCc2nc(-c3cccc(Cl)c3)no2)n[nH]c1=O [CBK295356]	103.318
COc1ccc(Cl)cc1NC(=O)C(=O)NCc1ccccn1 [CBK263837]	117.227
CCN1CCN(C(=O)Cc2ccc(OC)cc2)C(Cc2ccc(-c3ccncc3)cc2)C1=O (stereo not shown) [CBK285804]	94.6249
CCC(C)(C)c1ccc(S(=O)(=O)N2CCN(CCCOC3CCCCO3)CC2)cc1 (stereo not shown) [CBK063135]	90.8759
COc1ccc(Cn2c(=O)n(C(=O)c3cccc(S(C)(=O)=O)c3)c3ccccc32)cc1 [CBK106547]	93.0905
CCC(CC)C(=O)Nc1ccc([C@@H](O)[C@H]2COCC(=O)N2Cc2ccc(OC)cc2)cc1 [CBK289677]	96.6996
Cc1nnc2sc(-c3cccc(NC(=S)NC(=O)c4cc5ccccc5o4)c3)nn12 [CBK267282]	105.586
CCC(CO)Nc1cncc(-c2ccc(C(N)=O)cc2)n1 (stereo not shown) [CBK065577]	92.1872
Fc1ccc(-c2cncc(NCc3ccco3)n2)c(F)c1 [CBK065834]	128.041

Compound	% of control remaining
CC(C)N1CCC[C@H]1c1nc(-c2ccc(-c3cncnc3)nc2)no1 [CBK288892]	95.4469
Cc1ccc(NC(=O)c2cnc3n(c2=O)CCS3)cc1 [CBK287376]	93.7142
Cc1ccc(/C=N/n2c(S)nnc2COc2ccccc2)o1 [CBK265244]	96.9923
CC1CCCCC1NC(=O)Cn1c(=O)n(C(C)C)c2ncccc21 (stereo not shown) [CBK283697]	85.2356
O=C1N(CN2CCN(c3cccc(C(F)(F)F)c3)CC2)c2ccccc2C12OCCCO2 [CBK294461]	94.6669
CC1(c2cc(F)ccc2F)NC(=O)N(c2ccncc2)C1=O (stereo not shown) [CBK291253]	119.071
Nc1nonc1NC(=O)c1ccccc1Cl [CBK019040]	122.683
O=C(NC1CCCCC1)c1cc(Br)cnc1NCc1cccnc1 [CBK076439]	95.3933
O=C1C2CCCCN2C(=O)N1c1cccnc1 (stereo not shown) [CBK162359]	73.0003
Nc1nccnc1C(=O)Oc1ccccc1 [CBK090311]	131.62
CCCNC(=O)C[C@@H]1CCN(S(=O)(=O)c2c(C)noc2C)C[C@@H]1CC [CBK288780]	102.054
Cn1cc(C2CNCCN2C(=O)c2csc3ccccc23)cn1 (stereo not shown) [CBK304324C]	37.9988
COc1ccc(OC(=O)c2ccc3ncccc3c2)cc1 [CBK083572]	130.304
CC(C)Oc1cc(Br)cc(C(=O)N2CCC(C(=O)O)C2)c1 (stereo not shown) [CBK304268C]	84.0427
Cc1onc(-c2c(Cl)cccc2Cl)c1C(=O)N(C)C [CBK160437]	112.647
CCN(NC(=O)c1cc2cccc(OC)c2o1)c1ccc(C)cc1 [CBK161484]	102.681
COc1ccc(C(=O)O)cc1NC(=S)NC(=O)c1ccc(-c2ccccc2)cc1 [CBK265064]	120.082
CCCC/C=C/c1cnc(N)c(-c2ccc(O)cc2)n1 [CBK064068]	117.79
CC(C)[C@H]1CN(Cc2ccco2)CCN1C(=O)NCc1ccccc1 [CBK284274]	78.7992
CC1CCCN(C(=O)c2coc(COc3ccc(F)cc3)n2)C1 (stereo not shown) [CBK306874]	89.5051
